Results: ChEMBL document CHEMBL4888484, “Replenishing the malaria drug discovery pipeline: Screening and hit evaluation of the MMV Hit Generation Library 1 (HGL1) against asexual blood stage Plasmodium falciparum ,using a nano luciferase reporter read-out” (2022)
About 540 (0.36%) of roughly 150,000 compounds showed an effect of 50% or more. The list shows a part of the results.

Test system: Plasmodium falciparum
Test: Primary screen in NF54 nanoGlo assay, in single point, at 2uM, 72h; a lower Z score goes with more inhibition
Type: functional, Erythrocyte
Conditions: timepoint 72 hour

SMILES | % Inhibition | Z score
CC(=O)Nc1cc(Cl)c(NC(=O)COC(C)C)c(Cl)c1 | -15% | 1.58
Cc1c(F)cccc1NS(=O)(=O)c1cc(-c2nc(C(C)(C)C)cs2)cs1 | -12% | 1.7
CCCOc1ccc(-c2csc(NC(=O)c3cc(-c4ccccc4)nc4ccccc34)n2)cc1 | -15% | 2.41
Cc1c[nH]c([C@H](C)NC(=O)N(C)CCn2ccnc2C)n1 | -1% | 0.22
Cn1cc(Cl)c(C(=O)NCC#C[C@@H]2CCCCO2)n1 | -15% | 1.95
CCCN(CCC)C(=O)[C@H]1CCC[C@H]1NC(=O)c1ccc(OC)nc1 | 2% | -0.26
O=C(NCc1nnc2ccccn12)c1ccccc1C(=O)c1ccc(Cl)cc1 | 2% | -0.15
COC[C@H]1CN(C)CC12CCN(Cc1ccc(F)c(Cl)c1)CC2 | -10% | 1.15
O=C(NCCn1ccc(C(F)(F)F)n1)c1ccsc1 | -17% | 2.11
COc1ccc(-c2cc(C(=O)N[C@H]3CCN(c4ccc(=O)[nH]n4)C3)c(C)n2C)cc1 | 82% | -5.36
CCc1ccccc1NC(=O)[C@H]1CCC[C@H]1NC(=O)c1cnc(C)cn1 | 7% | -0.96
CCCn1cc(CN2CCc3[nH]nc(CCc4ccccc4)c3C2)c(C)n1 | -9% | 1.25
COc1cccc(CC(=O)Nc2nnc([C@H]3CC(=O)N(c4ccc(Cl)cc4)C3)o2)c1 | -5% | 0.66
CC[C@@H](c1ccc(F)cc1F)N1CCN(C(=O)Nc2nncs2)CC1 | -14% | 2.04
Cc1ccc(Cc2nc(N3CCN(C(=O)c4ccc(Cl)c(Cl)c4)CC3)c3c(-c4cccnc4)noc3n2)cc1 | -1% | 0.07
NC(=O)c1ccc(O[C@H]2CCOC[C@@H]2NC(=O)c2cccc(N)n2)cc1 | -10% | 1.15
O=C(NCCNc1ncccn1)[C@@H]1CC=CCC1 | -8% | 0.71
Cc1cc(OCC(=O)N2CCN(C(=O)c3cccc(F)c3)CC2)no1 | -9% | 1.15
O=C(Nc1cccnc1-n1cccn1)c1ncc(F)cc1F | -6% | 0.82
Cc1ncsc1CNC(=O)CCc1ccc(Br)cc1 | -4% | 0.45
C[C@H](NS(=O)(=O)C1CN(C(=O)OCc2ccccc2)C1)C(N)=O | -6% | 1.11

SMILES | % Inhibition | Z score
COc1cccc(CC(=O)N2C[C@H]3CNC(=O)[C@]34CCCC[C@@H]24)c1 | -6% | 0.89
CCN(C)c1ccc(-c2noc([C@H]3CCCc4[nH]ncc43)n2)cc1 | -2% | 0.26
Cc1ccc(Cl)cc1S(=O)(=O)N[C@@H](C#N)C(C)C | 2% | -0.18
CN1CCc2ncnc(N3CCC[C@@H]3CCc3ccccn3)c2C1 | -2% | 0.3
Cc1nn(-c2ccccc2)c(C)c1-c1cc(C(=O)O)nc2c3cccnc3nn12 | -3% | 0.36
Cn1nncc1NC(=O)N[C@@H]1c2ccccc2CC[C@@H]1O | -10% | 1.81
O=C1CCc2cc(NC3CCOCC3)ccc2N1CC1CC1 | -18% | 2.38
O=c1c(S(=O)(=O)N2CCCCC2)cccn1Cc1cc(F)cc(F)c1 | -1% | 0.08
CC(C)n1cc(C(=O)N2CCC(Nc3ccccn3)CC2)cn1 | 8% | -0.96
COc1ccc2ncccc2c1NC(=O)C1CC1C (stereo unspecified) | -2% | 0.32
O=C(CCS(=O)(=O)c1ccc(Cl)cc1)NCc1ccco1 | 28% | -3.77
O=C(NC[C@H]1Cn2ccnc2CO1)c1cccnc1 | -3% | 0.45
Cc1cnn(C)c1CN1CCOC[C@H]1c1nc(-c2ccccc2)no1 | 16% | -2.06
Cc1ccc(C2=C[C@@H](c3ccc(C)cc3)n3nnnc3N2CC(=O)Nc2ccc(N(C)C)cc2)cc1 | 9% | -0.92
CC(C)n1cc(CNc2cccc3c2CCN(CC(C)(C)O)C3)nn1 | 1% | -0.1
COc1ncnc(N)c1CNc1cccc(-c2nncn2C)c1 | -1% | 0.1
Cc1noc(C)c1CNc1nccn(C)c1=O | -3% | 0.44
COc1ccc(OC[C@H]2CC3(CCCCC3)CN2C(=O)c2cscn2)cc1 | 0% | 0.01
Cc1cncc(NC(=O)[C@@H](N)C(F)(F)F)c1 | 1% | -0.2
COc1cccc([C@H](CN2CCN(S(=O)(=O)c3c(C)nn(C)c3Cl)CC2)OCc2ccc(C)cc2)c1 | -1% | 0.14
O=S(=O)(NCCc1nccs1)N1CCCC1 | -10% | 1.02

SMILES | % Inhibition | Z score
CC(=O)N[C@@H](CCC(N)=O)c1nc(CC(C)C)n[nH]1 | -18% | 2.27
CC(C)NC(=O)c1[nH]cnc1C(=O)NCc1ccccc1F | 18% | -2.26
CC1CN(Cc2cc3cc(Cl)cnc3o2)C1 | -7% | 0.96
CCOC(=O)c1sc([C@H](C)NC(=O)C#Cc2ccccc2)nc1C | 25% | -2.87
COc1ccc(C(=O)N[C@@H](c2ccc(C)cc2)c2cccnc2)cc1OC | -6% | 0.73
CCOC(=O)N1CCN(C(=O)c2ccc3c(=O)n4c(nc3c2)CCCCCC4)CC1 | -2% | 0.3
CCc1ncc(C(=O)Nc2c(C)c(CC)nn2-c2ccccc2)cn1 | -14% | 1.97
Cc1ccccc1N1C(=O)C2C3C=CC(C3=C3CCCCC3)C2C1=O (stereo unspecified) | 9% | -1.3
COc1ccccc1Cn1ccc2c(cnc3c(-c4ccc(Cl)cc4)cnn32)c1=O | -17% | 2.48
O=C(c1cccc(-c2ccc3[nH]c(CO)nc3c2)c1)N1CC[C@@](O)(CO)C1 | -17% | 2.35
FC(F)(F)c1cccnc1N1CCC[C@H](C2CC2)C1 | -12% | 1.5
Cc1ccc(-c2ccc(C#N)s2)cc1NCc1nc(C2CC2)no1 | 25% | -2.96
COc1ccc(Cn2c(=O)c3c(ncn3Cc3ccc(Cl)c(Cl)c3)n(-c3ccc(F)cc3)c2=O)cc1 | 1% | -0.26
Cc1nc2c(c(N3CCC(c4nc(-c5ccccc5)no4)CC3)n1)CNC2 | -3% | 0.5
CN(C[C@H](O)c1ccc(F)cc1)C(=O)c1cccc2[nH]ccc12 | -4% | 0.43
Cc1nc2ccccc2n1[C@H]1CCN(S(=O)(=O)c2ccc(F)c(-c3nnn[nH]3)c2)C1 | -4% | 0.5
CCOc1ccc(NC(=O)c2nn3c(C)cc(C)nc3c2-c2ccc(C)c(S(=O)(=O)N3CCOCC3)c2)cc1 | -6% | 0.56
O=C(NC1CCOC2(CCS(=O)(=O)C2)C1)NC1CCCc2occc21 (stereo unspecified) | -6% | 0.78
O=C(CN1C[C@H]2CC[C@@H](C1)[C@H]2O)Nc1ccc(F)cc1 | -6% | 0.81
C[C@H](NC(=O)c1ccccc1N1CCCC1)c1ccc2c(c1)OCCO2 | -10% | 1.99
Cc1nc(C)n(C[C@H]2CCCCN2Cc2ccc3c(c2)OCCO3)n1 | -15% | 1.54

SMILES | % Inhibition | Z score
CN(C)CCn1ccnc1C1CCN(C(=O)NCc2cccc(F)c2)CC1 | 5% | -0.83
C[C@]1(C(=O)NCc2nsc3ccccc23)CCC(=O)NC1 | -17% | 2.03
Cc1nn(CCC(=O)n2nnc3ccccc32)c(C)c1Cl | -30% | 3.52
O=C(NCCc1nnc2ccccn12)NCC1CCCCC1 | -10% | 1.88
O=c1c2c(ncn1Cc1ccccc1)c1ccccc1n2Cc1c(F)cccc1Cl | -7% | 1.11
C=C(C)CN(CC)C(=O)Nc1cnn([C@@H](C)CC)c1C | -5% | 1.05
N#Cc1c(-c2ccccc2)cc(-c2ccccc2)nc1N1CCCCC1 | -6% | 0.85
Cc1ccc(F)c(S(=O)(=O)N2CCC(=O)Nc3cnccc32)c1 | -6% | 0.91
CCN1C(=O)[C@H]2[C@@H](C1=O)[C@@](CO)(C(=O)OC)N[C@H]2c1cccc2c1OC(C)(C)C2 | 0% | -0.05
C[C@@]1(C(F)(F)F)CN(C(=O)c2cnn3ccc(N)cc23)CCO1 | -4% | 0.54
c1cc(-c2ccn(Cc3ccncc3)n2)cc(-c2ncnc3sccc23)c1 | -19% | 1.78
Cc1noc(C)c1S(=O)(=O)NC[C@@](O)(c1cccs1)C1CC1 | -4% | 0.62
OC1=Nc2cccc3c2c(cn3Cc2ccccc2)[C@@H](c2ccc(O)cc2)C1 | -21% | 3.22
Cc1csc(CN(C)Cc2cc3c([nH]c2=O)CCCC3)n1 | -11% | 1.73
NC(=O)[C@H]1CCCN(C(=O)Cc2ccc3c(c2)OCO3)C1 | 2% | -0.21
COCC(=O)NCC#CCOc1ccccc1C(N)=O | -14% | 1.83
COc1ccccc1-c1cc(CN(Cc2ccc3c(c2)OCO3)C(=O)c2ccco2)no1 | -10% | 2.07
CC(C)[C@H](CNCc1ccsc1)c1ccnn1C | -13% | 1.69
CCOC(=O)c1cn([C@H]2COC[C@@H]2OCC)cc(Oc2ccccc2)c1=O | 0% | 0.06
O=C(CCCNc1ncccn1)NCCn1ccc2cc(Br)ccc21 | -11% | 1.53
